Experimental data: PubChem BioAssay (NCI)
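All cell lines were grown in 96-well plates and treated with compound for 48 hours. The concentration for 50% growth inhibition is given as GI50.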 The source holds more than one record for some entries. They are shown here; other results are not. An entry can have further records. For part of these data: The records of an entry are repeats (runs, samples, wells, individuals or studies). A tag in brackets gives the origin of a value. A, B and so on number the origins entry by entry.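 TGI: concentration producing complete growth inhibition.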 For part of these data: Records of one sample usually come from different ranges of test concentrations, not given here; some values may only mark the edge of a range.

Legend:
Assay in all cases: growth of human tumour cells (NCI), 48 h
SK-OV-3 ovarian = system: SK-OV-3 ovarian
HOP-62 NSCLC = system: HOP-62 NSCLC
SK-MEL-28 melanoma = system: SK-MEL-28 melanoma
SF-539 CNS = system: SF-539 CNS
SK-MEL-5 melanoma = system: SK-MEL-5 melanoma
MDA-MB-231 breast = system: MDA-MB-231 breast
HT29 colon = system: HT29 colon
NCI-H522 lung = system: NCI-H522 lung
HCT-116 colon = system: HCT-116 colon
OVCAR-5 ovarian = system: OVCAR-5 ovarian
U251 CNS = system: U251 CNS
UO-31 renal = system: UO-31 renal
SK-MEL-2 melanoma = system: SK-MEL-2 melanoma
MALME-3M melanoma = system: MALME-3M melanoma
CAKI-1 renal = system: CAKI-1 renal
SF-295 CNS = system: SF-295 CNS
UACC-257 melanoma = system: UACC-257 melanoma
MOLT-4 leukemia = system: MOLT-4 leukemia
ACHN renal = system: ACHN renal
KM12 colon = system: KM12 colon
DMS 114 small cell lung = system: DMS 114 small cell lung
HCC-2998 colon = system: HCC-2998 colon
XF 498 CNS = system: XF 498 CNS
DMS 273 small cell lung = system: DMS 273 small cell lung
SW-620 colon = system: SW-620 colon
M14 melanoma = system: M14 melanoma
IGROV1 ovarian = system: IGROV1 ovarian
786-0 renal = system: 786-0 renal
RXF 393 renal = system: RXF 393 renal
NCI-H460 lung = system: NCI-H460 lung
HL-60(TB) leukemia = system: HL-60(TB) leukemia
CCRF-CEM leukemia = system: CCRF-CEM leukemia
SR leukemia = system: SR leukemia

For `CNS(=O)(=O)Nc1nccc(Cc2c(C)c3ccc(Oc4ncccn4)cc3oc2=O)c1F`, the GI50 (SK-OV-3 ovarian) was > 100 µM [sample A, mean of 2 tests] and 9.9 µM [sample B, mean of 2 tests], the GI50 (HOP-62 NSCLC) was 2.09 µM [sample A, mean of 2 tests] and 95.5 nM [sample B, mean of 2 tests] and the TGI (SK-MEL-28 melanoma) was > 100 µM [sample A, mean of 2 tests] and 226 nM [sample B, 1 test].

With `Cc1cnc2[nH]c(-c3cccc4ccccc34)cc(=O)c2c1` the TGI (SF-539 CNS) was 19.4 nM and > 100 µM, the TGI (SK-MEL-5 melanoma) was 1.01 nM and 106 nM and the TGI (MDA-MB-231 breast) was 95.5 nM and > 100 µM.

With `O=C1NC(=O)C2C3C=CC(C12)C1C2C(=O)NC(=O)C2C31` (configuration not stated) the TGI (HOP-62 NSCLC) was 86.4 µM and > 1 mM.

With `C/C=C(/CCC1NCCc2c1[nH]c1ccccc21)[Si](C)(C)C` (configuration not stated) the TGI (HT29 colon) was > 100 µM [sample A, 1 test] and 6.37 µM [sample B, mean of 2 tests], the GI50 (NCI-H522 lung) was > 100 µM [sample A, 1 test] and 1.86 µM [sample B, mean of 2 tests] and the TGI (NCI-H522 lung) was > 100 µM [sample A, 1 test] and 3.48 µM [sample B, mean of 2 tests]. For the same compound, the TGI (HCT-116 colon) was > 100 µM [sample A, 1 test] and 5.15 µM [sample B, mean of 2 tests], the GI50 (OVCAR-5 ovarian) was > 100 µM [sample A, 1 test] and 4.3 µM [sample B, mean of 2 tests] and the GI50 (U251 CNS) was > 100 µM [sample A, 1 test] and 3.81 µM [sample B, mean of 2 tests]. For the same compound, the GI50 (UO-31 renal) was > 100 µM [sample A, 1 test] and 4.01 µM [sample B, mean of 2 tests], the GI50 (SF-539 CNS) was > 100 µM [sample A, 1 test] and 5 µM [sample B, mean of 2 tests] and the GI50 (SK-MEL-2 melanoma) was > 100 µM [sample A, 1 test] and 2.85 µM [sample B, mean of 2 tests]. For the same compound, the TGI (SK-MEL-2 melanoma) was > 100 µM [sample A, 1 test] and 7.79 µM [sample B, mean of 2 tests], the TGI (MALME-3M melanoma) was > 100 µM [sample A] and 3.41 µM [sample B] and the GI50 (CAKI-1 renal) was > 100 µM [sample A, 1 test] and 6.24 µM [sample B, mean of 2 tests]. The GI50 (SF-295 CNS) was > 100 µM [sample A, 1 test] and 7.01 µM [sample B, mean of 2 tests], the TGI (UACC-257 melanoma) was > 100 µM [sample A, 1 test] and 9.15 µM [sample B, mean of 2 tests] and the TGI (MOLT-4 leukemia) was > 100 µM [sample A] and 7.38 µM [sample B]. For the same compound, the GI50 (ACHN renal) was > 100 µM [sample A, 1 test] and 9.03 µM [sample B, mean of 2 tests], the GI50 (KM12 colon) was > 100 µM [sample A, 1 test] and 3.57 µM [sample B, mean of 2 tests] and the TGI (DMS 114 small cell lung) was > 100 µM [sample A, 1 test] and 4.18 µM [sample B, mean of 2 tests]. For the same compound, the TGI (HCC-2998 colon) was > 100 µM [sample A, 1 test] and 3.21 µM [sample B, 1 test], the TGI (XF 498 CNS) was > 100 µM [sample A] and 3.41 µM [sample B] and the GI50 (DMS 273 small cell lung) was > 100 µM [sample A, 1 test] and 4.2 µM [sample B, mean of 2 tests]. The GI50 (SW-620 colon) was > 100 µM [sample A, 1 test] and 2.57 µM [sample B, mean of 2 tests], the TGI (SW-620 colon) was > 100 µM [sample A, 1 test] and 6.58 µM [sample B, mean of 2 tests] and the TGI (M14 melanoma) was 46 µM [sample A, 1 test] and 3.24 µM [sample B, mean of 2 tests]. For the same compound, the GI50 (SK-MEL-28 melanoma) was > 100 µM [sample A, 1 test] and 2.67 µM [sample B, mean of 2 tests], the TGI (SK-MEL-28 melanoma) was > 100 µM [sample A, 1 test] and 5.9 µM [sample B, mean of 2 tests] and the GI50 (IGROV1 ovarian) was > 100 µM [sample A, 1 test] and 7.22 µM [sample B, mean of 2 tests]. For the same compound, the TGI (786-0 renal) was > 100 µM [sample A, 1 test] and 4.67 µM [sample B, 1 test], the GI50 (RXF 393 renal) was > 100 µM [sample A, 1 test] and 3.08 µM [sample B, mean of 2 tests] and the TGI (RXF 393 renal) was > 100 µM [sample A, 1 test] and 8.61 µM [sample B, mean of 2 tests]. For the same compound, the GI50 (NCI-H460 lung) was > 100 µM [sample A, 1 test] and 3.38 µM [sample B, mean of 2 tests], the TGI (NCI-H460 lung) was > 100 µM [sample A, 1 test] and 8.6 µM [sample B, mean of 2 tests] and the TGI (HL-60(TB) leukemia) was > 100 µM [sample A, 1 test] and 4.45 µM [sample B, mean of 2 tests]. For the same compound, the GI50 (CCRF-CEM leukemia) was > 100 µM [sample A, 1 test] and 3.32 µM [sample B, mean of 2 tests] and the TGI (SR leukemia) was > 100 µM [sample A, 1 test] and 9.86 µM [sample B, 1 test].
